According to PubChem BioAssay AID1240 (Sanford-Burnham Center for Chemical Genomics, 2008):
Hit rate of the full screen: of about 50,000 compounds, about 800 (1.6%) showed an effect of 50% or more. The list shows a part of the results.

These compounds were tested against Bcl-2-like protein 10 (Homo sapiens) (UniProt Q9HD36) (assay: Phenotype converters, Bcl-B/TR3 peptide binding displacement, primary biochemical FP (AID 1240;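 also: 0% = Bcl-B with tracer peptide and DMSO and 100% = tracer peptide lacking Bcl-B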)). Details: GST-Bcl-B / FITC-TR3 peptide fluorescence polarization; stronger effect = higher value; compound at 3.75 mg/L.
Sequence of UniProt Q9HD36 (Q9HD36 whole entry, looked up): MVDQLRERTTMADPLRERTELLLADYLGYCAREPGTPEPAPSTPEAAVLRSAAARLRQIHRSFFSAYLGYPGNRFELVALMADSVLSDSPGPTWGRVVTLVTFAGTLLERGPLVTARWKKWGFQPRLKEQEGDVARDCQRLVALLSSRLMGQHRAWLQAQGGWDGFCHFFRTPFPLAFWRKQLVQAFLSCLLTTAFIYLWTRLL

First: COc1cc(/C=N/Nc2nc(N3CCCCC3)nc(N3CCCCC3)n2)cc(Cl)c1O
Second: CCOC(=O)CSc1nc(N)c2c3c(sc2n1)CCCCC3
The displacement of the first is higher: 1.2% for the first, -4.6% for the second.

First: Cc1ccc(NC(=O)CN(c2cccc([N+](=O)[O-])c2)S(=O)(=O)c2ccccc2)cc1Cl
Second: Cc1ccc(NC(=O)CN(c2c(C)n(C)n(-c3ccccc3)c2=O)S(=O)(=O)c2ccccc2)cc1
The displacement of the first is lower: 7.5% for the first, 9.3% for the second.

Compared with `Clc1ccc(C=NN2CCN(Cc3ccccc3Cl)CC2)c(Cl)c1`, `COc1ccc(CNCc2ccccc2Cl)cc1OC` is lower in displacement: -4.6% for the first, -13.1% for the second.

First: Cc1ccc(C(=O)/C=C(/N)C(F)(F)F)cc1
Second: Cc1cccc(OCC(=O)Nc2ccc(Cl)cc2C(F)(F)F)c1
The displacement of the first is higher: 11% for the first, 0% for the second.

Going from `O=C(COc1ccccc1[N+](=O)[O-])Nc1ccc(OC(F)(F)F)cc1` to `COC(=O)c1ccc(C(=O)OC)c(NC(=O)COc2ccccc2[N+](=O)[O-])c1`, the displacement rises from 3.8% to 66.9%.

Compared with `O=C(Nc1ccc(S(=O)(=O)N2CCc3ccccc32)cc1)c1ccc(Cl)cc1`, `CCOC(=O)c1ccc(NS(=O)(=O)c2cc(C(=O)Nc3ccccc3)ccc2C)cc1` is lower in displacement: 0.8% for the first, -8.1% for the second.

First: Cc1cc(C)c(NC(=O)c2c(-c3ccccc3Cl)noc2C)c(C)c1
Second: Cc1cc(C)c(NC(=O)COc2ccc(C)cc2C(C)(C)C)c(C)c1
The displacement of the first is higher: 4.2% for the first, -1.3% for the second.

Compared with `COc1ccc(NC(=O)Nc2ccc(Cc3ccncc3)cc2)cc1`, `CCc1ccc(S(=O)(=O)Nc2ccc(NC(C)=O)cc2)cc1` is lower in displacement: 4.9% for the first, -7.9% for the second.

Going from `O=C(CCCN1C(=O)/C(=C\c2cccc(Br)c2)SC1=S)Nc1ccc(C(=O)O)cc1` to `COc1ccc(NC(=O)CCCN2C(=O)c3cccc4cccc(c34)C2=O)cc1`, the displacement falls from 13.2% to -2.9%.

Going from `COc1ccc2c(c1)-c1c(sn(-c3ccc(Br)cc3)c1=S)C(C)(C)N2` to `COc1ccc(N2CC(C(=O)N/N=C/c3cc([N+](=O)[O-])ccc3O)CC2=O)cc1` (centres undefined), the displacement falls from 3.4% to -9.6%.

First: CC(NC(=O)CN1CCOCC1)C1CC1 (centres undefined)
Second: CC(C)c1ccc(-c2cc(C(=O)NCCN3CCOCC3)c3ccccc3n2)cc1
The displacement of the first is higher: 4.8% for the first, -6.9% for the second.

Compared with `Cc1ccccc1/C=N/Nc1ccc([N+](=O)[O-])cc1`, `O=C(Cc1ccc([N+](=O)[O-])cc1)N/N=C/c1ccccn1` is higher in displacement: -11% for the first, -5.2% for the second.

First: COc1ccc2c(c1C)CCC/C2=N\OC(=O)c1ccccc1F
Second: COc1ccc(NC(=O)c2cccc(F)c2)cc1OC
The displacement of the first is higher: -3.4% for the first, -9% for the second.

Compared with `CCOc1ccc(S(=O)(=O)NCc2ccco2)c2ccccc12`, `Cc1ccccc1OCCNC(=O)c1cccc2ccccc12` is lower in displacement: 5.4% for the first, 1.1% for the second.

Going from `O=C(c1ccc2c(c1)OCO2)N1CCN(c2ccc(Cl)cc2)CC1` to `O=C(c1ccc(Cl)cc1)N1CCN(c2ccc([N+](=O)[O-])c(NCc3ccccc3)c2)CC1`, the displacement falls from 11% to -4.6%.

First: Cc1cccc(OCC(=O)NC(C)C)c1
Second: CC(C)NC(=O)CN(c1cccc(Cl)c1)S(C)(=O)=O
The displacement of the first is lower: -5.2% for the first, 4.5% for the second.

First: COc1ccc(C2CC(=O)CC(c3ccc(OC)cc3)S2)cc1 (centres undefined)
Second: COc1ccc(CCN2C(=O)CSC2c2ccc(Cl)cc2)cc1OC (centres undefined)
The displacement of the first is higher: -1.2% for the first, -11.5% for the second.

First: O=C(N/N=C/c1ccc(O)c(O)c1)c1cccc(F)c1
Second: O=C(NN1C(=O)/C(=C/c2ccccc2Cl)SC1=S)c1ccccc1O
The displacement of the first is lower: -6.6% for the first, 16.5% for the second.

Going from `CCOc1ccccc1C1C(C(=O)Nc2ccccc2OC)=C(C)NC2=C1C(=O)CC(C)(C)C2` (centres undefined) to `CCOc1ccccc1NC(=O)CCCOc1ccc(Cl)cc1Cl`, the displacement rises from 0% to 13.5%.

First: Cc1sc(/C=C(/C#N)C(N)=S)cc1Br
Second: Cc1cc([N+](=O)[O-])ccc1N/C=C/C(=O)c1ccc(Br)cc1
The displacement of the first is lower: -1.4% for the first, 18.4% for the second.

Compared with `CC(=O)NCC1OCCc2ccccc21` (centres undefined), `CC(=O)/C=C1/SCC(=O)N1c1ccccc1` is lower in displacement: -0.3% for the first, -2.8% for the second.

Going from `COc1ccc2nc(NC(=O)c3ccccc3[N+](=O)[O-])sc2c1` to `COc1ccc(COC(=O)NNC(=O)c2ccccc2Cl)cc1`, the displacement falls from 16% to -1.8%.

First: COc1cc(-c2nc3ccccn3c2/N=C/c2cc3c(cc2[N+](=O)[O-])OCO3)ccc1O
Second: O=[N+]([O-])c1ccc(S(=O)(=O)N/N=C/c2ccc3c(c2)OCO3)cc1
The displacement of the first is higher: 10% for the first, 6.1% for the second.

Going from `COc1ccc(OC)c(/C=N/n2nnnc2N)c1` to `COc1ccc(-c2nnnn2C)cc1S(=O)(=O)Nc1cccc(C(F)(F)F)c1`, the displacement falls from 12.7% to 11.3%.

First: NC1=NC(=O)/C(=C/c2cc(Cl)c(OCc3ccccc3)c(Cl)c2)S1
Second: Cc1ccccc1/C=C1\SC(=S)N(Cc2ccccc2)C1=O
The displacement of the first is lower: 12.1% for the first, 32.3% for the second.

First: COc1ccc(Cl)cc1C(=O)NCC(C)C
Second: OCCNCCCOc1cc(Cl)ccc1Cl
The displacement of the first is lower: -5.8% for the first, 0.7% for the second.

First: CC(=O)Nc1ccc(S(=O)(=O)N(CCc2ccccc2)CC(=O)O)cc1
Second: CCN(CC)S(=O)(=O)c1ccc(NC(=S)Nc2ccccc2)cc1
The displacement of the first is lower: -18.1% for the first, -5.6% for the second.

Compared with `O=C(O)CCN1C(=O)/C(=C/c2cn(-c3ccccc3)nc2-c2ccccc2)SC1=S`, `O=C(Nc1ccccc1C(=O)Nc1ccc(Br)cc1)c1ccccc1` is higher in displacement: 2.5% for the first, 3% for the second.

First: CCCCOc1ccc(NC2=NC3(CCCCC3)N=C(N)N2)cc1
Second: CCCCOc1ccc(S(=O)(=O)n2ccnc2C(C)C)cc1
The displacement of the first is lower: -10% for the first, 2.9% for the second.

Going from `C=CCOc1ccc2c(OC)c3ccoc3nc2c1OC` to `COc1cccc(/C=C(\C#N)c2nc3ccccc3[nH]2)c1OCC#N`, the displacement rises from -2.7% to 14.5%.

Compared with `Cc1ccc2nc(-c3cc(NC(=O)c4cccs4)ccc3Cl)oc2c1`, `O=C(NC(=S)Nc1ccc2oc(-c3ccccc3Br)nc2c1)c1ccccc1Cl` is lower in displacement: 2% for the first, -4.9% for the second.

First: CCn1cc(C(=O)NN)c(=O)c2cc(F)c(N3CCOCC3)cc21
Second: CSc1ccc(/C=C(/NC(=O)c2ccccc2)C(=O)N2CCOCC2)cc1
The displacement of the first is higher: 22.2% for the first, -6.6% for the second.

Compared with `CC(C)c1ccc(/C=N/n2cnnc2)cc1`, `COc1cc(/C=C2/C(=O)NC(=O)N(c3ccc(C(C)C)cc3)C2=O)cc([N+](=O)[O-])c1O` is lower in displacement: 5.8% for the first, -6.4% for the second.

First: CCN(CC)CCOc1ccccc1Cl
Second: CCc1ccccc1OCCN(CC)CC
The displacement of the first is lower: 2.7% for the first, 7% for the second.

First: CCOC(=O)C1=C(C)N(c2ccccc2)C(=O)C1CC(=O)Nc1ccc(C)cc1C (centres undefined)
Second: CCOC(=O)c1ccccc1NC(=O)CN(c1ccc(OC)c(Cl)c1)S(C)(=O)=O
The displacement of the first is lower: -3.5% for the first, 3.9% for the second.

First: O=C(Nc1cccc(F)c1)Nc1cccc(NC(=O)Nc2cccc(F)c2)c1
Second: CC(C)(C)C(=O)Nc1ccc(C(=O)Nc2cccc(I)c2)cc1
The displacement of the first is lower: 3% for the first, 9.7% for the second.

First: CC(c1ccccc1)c1nnc(NC(=O)c2cccs2)s1 (centres undefined)
Second: Cc1ccccc1NC(=O)/C(=C\c1cccs1)NC(=O)c1ccc(C(C)(C)C)cc1
The displacement of the first is lower: -3% for the first, 16.9% for the second.

Going from `Cc1ccc2cc(C3CC(c4ccc(Br)cc4)=NN3C(=O)CCC(=O)O)c(=O)[nH]c2c1` (centres undefined) to `COc1ccc(/C(O)=C2/C(=O)C(=O)N(CCCCCC(=O)O)C2c2cccc([N+](=O)[O-])c2)cc1` (centres undefined), the displacement falls from 14% to -14.6%.

Compared with `CC(C)(C)C(=O)Nc1ccc(C(=O)Nc2ccc(O)cc2C(=O)O)cc1`, `Cc1ccc(N(Cc2ccc(C(=O)Nc3cc(Cl)ccc3C)cc2)S(C)(=O)=O)cc1C` is lower in displacement: 7.6% for the first, -2.5% for the second.

First: O=C(CCCN1C(=O)/C(=C\c2cccs2)SC1=S)NC12CC3CC(CC(C3)C1)C2
Second: C=CCN1C(=O)/C(=C/c2ccc(OC(=O)C34CC5CC(CC(C5)C3)C4)c(OC)c2)SC1=S
The displacement of the first is higher: 9.2% for the first, 0.6% for the second.

First: O=[N+]([O-])c1c(NC2CC2)ncnc1NC1CC1
Second: c1ccc(C2CCC(N3CCN(Cc4cccnc4)CC3)CC2)cc1 (centres undefined)
The displacement of the first is higher: 10.9% for the first, -0.2% for the second.

Compared with `COCc1cc(C(C)(C)C)c(O)c(O)c1C(C)(C)C`, `COc1cccc(NS(=O)(=O)c2c(C)cc(C)cc2C)c1` is lower in displacement: 26% for the first, 1.6% for the second.

Compared with `COC(=O)c1sc2nc(-c3ccccc3)nc(N)c2c1C`, `O=c1[nH]c(Nc2nc3ccccc3o2)nc(O)c1Cc1ccccc1` is higher in displacement: -12.3% for the first, 0.7% for the second.

Going from `Cc1cc(C)c(NC(=S)NC(=O)/C=C/c2ccccc2)c([N+](=O)[O-])c1` to `CN(Cc1ccccc1)C(=O)c1ccc([N+](=O)[O-])cc1Cl`, the displacement falls from 11.6% to -12.3%.

Compared with `O=[N+]([O-])c1ccc2c(c1)C1C=CCC1C(c1cccc(Cl)c1Cl)N2` (centres undefined), `O=C(NCc1ccco1)/C(=C/c1ccc([N+](=O)[O-])cc1)NC(=O)c1ccccc1Cl` is lower in displacement: 4.5% for the first, -4.6% for the second.

First: C=COCCNC(=O)C(=O)Nc1cccc(C)c1C
Second: CCOC(=O)C1=C(N)OC2=C(C(=O)CCC2)C1c1ccc(C)cc1C (centres undefined)
The displacement of the first is lower: -2.5% for the first, 3.3% for the second.

Compared with `O=C(NC(Cc1ccccc1)C(=O)NCCc1c[nH]c2ccccc12)OCc1ccccc1` (centres undefined), `CC(NC(=O)CN(c1ccc(F)cc1)S(=O)(=O)c1ccccc1)c1ccccc1` (centres undefined) is lower in displacement: 12.8% for the first, -6.4% for the second.

First: COc1cc(C2SCC(=O)N2Cc2ccco2)cc([N+](=O)[O-])c1O (centres undefined)
Second: O=C1CSC(c2ccc(F)cc2)N1CCN1CCCCC1 (centres undefined)
The displacement of the first is lower: -11% for the first, 1% for the second.

Compared with `Cc1cccc(OCCCn2ccnc2)c1`, `COc1ccc(CCN2C(=O)/C(=C/c3c(NCCCn4ccnc4)nc4c(C)cccn4c3=O)SC2=S)cc1OC` is higher in displacement: -2.2% for the first, -1.5% for the second.

First: CCOc1ccc(-n2nc3ccc(NC(=S)NC(=O)c4ccco4)cc3n2)cc1
Second: COc1ccc(CN=Cc2c(O)n(-c3cccc(Cl)c3)c(=O)[nH]c2=O)cc1
The displacement of the first is lower: 11.6% for the first, 81.4% for the second.

Going from `CC(=O)NC1=NC(=O)/C(=C\c2ccc3c(c2)OCO3)S1` to `CC(C)=N/N=C1/NC(=O)C(CC(=O)Nc2ccccc2Br)S1` (centres undefined), the displacement falls from 130% to -22.4%.

Going from `CCn1c(C(O)(c2ccccc2)c2ccc(C)cc2)nc2ccccc21` (centres undefined) to `Cc1ccc(NC(=O)CS(=O)(=O)c2ccccc2)cc1`, the displacement rises from -4.8% to 16.1%.

Compared with `CC(C)CCCC(C)CCOC(=O)CN1CCCC1` (centres undefined), `O=C(CSc1nc2sc3c(c2c(=O)[nH]1)CCCC3)NCc1ccccn1` is lower in displacement: 5.3% for the first, -0.6% for the second.

First: CC(=O)NNC(=O)COc1ccc(Br)cc1
Second: NNC(=O)/C(=C\c1ccc(Cl)cc1)NC(=O)c1ccccc1
The displacement of the first is higher: 10.6% for the first, -4% for the second.

For `COc1ccc(OCCn2c(=O)c3cc4c(=O)n(CCOc5ccc(OC)cc5)c(=O)c4cc3c2=O)cc1`, the displacement was -7.3%.
